# Measurements taken from PMC4336329 (PLoS ONE, 2015).
# Among all 310,000 compounds or so, about 2,200 (0.71%) showed an effect of 50% or more. Effects have a minus sign here. This is one part of the list.
# Target: human ether-à-go-go-related gene (hERG) potassium channel (human, UniProt Q12809)
# Test: primary screen, population patch clamp on CHO cells stably expressing hERG
# Sequence of human ether-à-go-go-related gene (hERG) potassium channel (Q12809 whole entry, looked up): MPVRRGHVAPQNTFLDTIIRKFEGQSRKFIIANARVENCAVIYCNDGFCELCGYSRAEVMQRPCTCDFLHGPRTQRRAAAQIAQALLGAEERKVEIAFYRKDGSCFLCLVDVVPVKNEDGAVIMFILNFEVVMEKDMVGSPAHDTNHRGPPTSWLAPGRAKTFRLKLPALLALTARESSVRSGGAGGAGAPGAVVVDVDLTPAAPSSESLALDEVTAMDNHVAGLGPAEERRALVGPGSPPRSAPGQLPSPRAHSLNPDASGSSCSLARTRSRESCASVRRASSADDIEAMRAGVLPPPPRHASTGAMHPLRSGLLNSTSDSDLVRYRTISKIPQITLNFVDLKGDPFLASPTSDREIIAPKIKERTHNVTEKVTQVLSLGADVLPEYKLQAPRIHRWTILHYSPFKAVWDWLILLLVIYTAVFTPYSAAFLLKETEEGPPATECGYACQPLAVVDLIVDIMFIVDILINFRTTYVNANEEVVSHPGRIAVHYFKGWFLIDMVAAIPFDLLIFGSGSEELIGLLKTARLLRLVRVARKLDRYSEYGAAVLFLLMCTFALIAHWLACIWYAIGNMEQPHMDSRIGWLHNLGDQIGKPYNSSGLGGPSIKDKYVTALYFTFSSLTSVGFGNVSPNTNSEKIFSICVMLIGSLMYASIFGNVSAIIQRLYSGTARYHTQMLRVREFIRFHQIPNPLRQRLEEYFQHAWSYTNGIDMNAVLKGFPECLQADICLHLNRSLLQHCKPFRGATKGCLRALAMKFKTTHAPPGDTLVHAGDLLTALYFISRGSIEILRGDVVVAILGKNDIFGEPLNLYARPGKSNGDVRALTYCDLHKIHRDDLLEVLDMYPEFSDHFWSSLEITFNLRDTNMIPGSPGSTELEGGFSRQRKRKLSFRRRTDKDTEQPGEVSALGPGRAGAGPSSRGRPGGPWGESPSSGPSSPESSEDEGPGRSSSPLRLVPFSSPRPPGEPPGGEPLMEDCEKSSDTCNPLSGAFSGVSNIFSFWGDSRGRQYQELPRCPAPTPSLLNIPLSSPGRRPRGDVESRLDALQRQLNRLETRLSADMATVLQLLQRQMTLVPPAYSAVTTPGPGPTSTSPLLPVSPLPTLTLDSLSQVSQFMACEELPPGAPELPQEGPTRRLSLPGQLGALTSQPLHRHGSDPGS
row,SMILES,"hERG current change (%, negative = inhibition) at 1uM [%]"
1,O=C(OCC(=O)N1CCN(c2ccccc2)CC1)c1cccs1,5.96
2,Cc1ccc(-c2csc(NC(=O)C3CC(=O)N(Cc4ccco4)C3)n2)cc1 (stereo not drawn),-2.47
3,O=C(COc1ccccc1C(=O)O)NC1CCCc2ccccc21 (stereo not drawn),8.24
4,COCCNC(=O)C(=O)Nc1cccc(Br)c1,11.6
5,COc1ccc(NC(=O)CSc2nc3[nH]ncc3c(=O)n2-c2ccccc2OC)cc1OC,18
6,O=C(CCCc1c[nH]c2ccccc12)Nc1ncccc1O,11
7,COCCCn1c(Cc2csc(Nc3cccc(Cl)c3)n2)nnc1SCC(=O)OC,-8.9
8,CCOC(=O)c1cc2ccc3ccccc3c2oc1=O,11.2
9,Cc1cc(C)cc(OCC(=O)N(Cc2cccs2)C2CCS(=O)(=O)C2)c1 (stereo not drawn),-0.223
10,CC1CCCN(S(=O)(=O)c2ccc(CN3C(=O)c4cccnc4C3=O)cc2)C1 (stereo not drawn),-3.88
11,CCOc1ccc(/C=C2/SC(=O)NC2=S)cc1,7.86
12,COC(=O)c1ccc(N2C(=O)CC(N3CCN(c4ccccc4)CC3)C2=O)cc1 (stereo not drawn),5.4
13,COCCCNCCCCOc1ccc(Br)cc1C.O=C(O)C(=O)O,-24
14,O=C(c1ccc(S(=O)(=O)N2CCCC2)cc1)N1CCC(CN2C(=O)c3cccc4cccc(c34)C2=O)CC1,11.9
15,COC(=O)c1cn(Cc2cc(OC)ccc2OC)cc(F)c1=O,15.5
16,Cc1ccc2[nH]c(C)c(CCNCc3ccco3)c2c1.Cl,16
17,O=C(Cn1cnc2c(nnn2Cc2ccc(F)cc2)c1=O)NC1CCCC1,9.74
18,Fc1ccc(COc2cccc3cccnc23)cc1,11
19,O=c1sc2ccccc2n1CCCOc1ccccc1,9.71

row,SMILES,"hERG current change (%, negative = inhibition) at 1uM [%]"
1,Cc1ccc2[nH]c(O)c(N=NC(=O)c3ccc(NS(=O)(=O)c4cccs4)cc3)c2c1,8.69
2,O=C(Nc1ccc(S(=O)(=O)N2CCCC2)cc1)c1ccc2c(=O)n3c(nc2c1)CCCCC3,10.1
3,CCN(C(=O)CSc1nc2ccccc2n1CCc1ccccc1)C1CCS(=O)(=O)C1 (stereo not drawn),1.87
4,Cc1ccccc1-c1noc(CNC(=O)COc2ccccc2)n1,2.09
5,O=c1[nH]n(-c2ccc([N+](=O)[O-])cc2)c(=O)c2ccccc12,3.44
6,NC(=O)c1cc([N+](=O)[O-])ccc1NCc1ccc(N)cc1,16.5
7,O=C(/C=C/c1ccc([N+](=O)[O-])cc1)/C=C/c1ccco1,5.91
8,Cc1ccccc1NC1=C(C(=O)c2ccccc2)N(C)S(=O)(=O)c2ccccc21,10.2
9,Cc1ccc(CN(c2ccc(C(=O)N3CCCC3)cc2)S(C)(=O)=O)cc1,12.8
10,CCN1CCN(c2ccc(S(=O)(=O)N3CCCCC3)cc2NC(=O)Cc2ccc(OC)cc2)CC1,-13.7
11,Cc1ccc(-c2nnc(SCC(=O)Nc3ccc4c(c3)OCCO4)n2N)cc1,-1.89
12,CCOC(=O)c1c(NC(=O)COC(=O)CCCOc2ccc(OC)cc2)sc(C(=O)NC)c1C,-2.22
13,NS(=O)(=O)c1cccc(NC(=O)c2cccc(Oc3ccccc3)c2)c1,12.8
14,COc1ccc(-c2cnn3c4c(c(C)nc23)CCN4C(C)C)cc1OC,14.3
15,Cc1ccc(NC(=O)C/C(N)=N/OC(=O)Nc2cccc(Cl)c2)cc1,15.2
16,CCCNC(=O)c1c(O)c2cccc3c2n(c1=O)CCC3,10.5
17,Cc1ccc(OC(=O)c2ccccc2C(=O)OCC(F)(F)C(F)F)cc1,14
18,O=C(OCC(=O)N1CCOCC1)c1ccccc1Cc1ccccc1,-0.874
19,O=C(c1ccccc1NS(=O)(=O)c1ccc(F)cc1)N1CCOCC1,4.8

row,SMILES,"hERG current change (%, negative = inhibition) at 1uM [%]"
1,Cc1nn(-c2cc(N3CCCCCC3)ccc2[N+](=O)[O-])c(=O)c2ccccc12,17.3
2,O=c1c2[nH]c3ccccc3c2ncn1Cc1ccccn1,8.6
3,CCCCc1nnc2c(N(C)S(=O)(=O)c3ccccc3)nc3ccccc3n12,10.2
4,CC(C)Cc1ccc(C(C)C(=O)Nc2cccnc2)cc1 (stereo not drawn),16.1
5,C/C(=N\NS(=O)(=O)c1ccccc1)c1cc(Cl)cc(Cl)c1O,9.56
6,C/C(=N\N=C(N)N)c1ccccc1,13.3
7,CN=c1scc(-c2ccccc2F)n1/N=C/c1ccc[nH]1,12.7
8,Cn1c(=O)c(NC(=O)c2ccccc2)c2n(c1=S)CCCCC2,11.7
9,COc1ccc(OCCCC(=O)N(C)CC(=O)Nc2ccccc2Cl)cc1,0.818
10,CCOC(=O)CNC(=O)COc1coc(CN2CCN(c3ccccc3)CC2)cc1=O,11.5
11,COCCn1c(SCC(=O)c2ccccc2)nc2c(c1=O)SC(C)C2 (stereo not drawn),11.9
12,Brc1cnc2nc[nH]c2c1,15.8
13,Nc1c(C(=O)N2CCOCC2)oc2ccccc12,25.2
14,CC(=O)N1N=C(c2ccc(Cl)cc2)CC1c1ccc([N+](=O)[O-])cc1 (stereo not drawn),11
15,CN1[C@@H]2CC[C@H]1CC(OC1c3ccccc3CCc3ccccc31)C2.O=C(O)CC(O)(CC(=O)O)C(=O)O (stereo partly drawn),-2.76
16,O=C(C#Cc1ccccc1)NCc1ccccc1F,6.82
17,COc1cc(NC(=O)CN2C(=O)NC(C)(c3ccccc3)C2=O)c(C)cc1[N+](=O)[O-] (stereo not drawn),1.93
18,NC1=NC(=Nc2ccc(Cl)cc2)c2ccccc21,2.09
19,Cn1c(SCC(=O)Nc2cccc(Br)c2)nnc1-c1cc2ccccc2o1,10.2
